# Assay results from the supplement of paper PMC3334620.
# The full ranking holds about 33,000 sequences; the median of “E-score (-0.5 to 0.5)” is about -0.012, and the highest 2% start at about 0.29. The list shows a part of the results.
# Target: T1, Ybr033w (UniProt P38073)
# T1 sequence: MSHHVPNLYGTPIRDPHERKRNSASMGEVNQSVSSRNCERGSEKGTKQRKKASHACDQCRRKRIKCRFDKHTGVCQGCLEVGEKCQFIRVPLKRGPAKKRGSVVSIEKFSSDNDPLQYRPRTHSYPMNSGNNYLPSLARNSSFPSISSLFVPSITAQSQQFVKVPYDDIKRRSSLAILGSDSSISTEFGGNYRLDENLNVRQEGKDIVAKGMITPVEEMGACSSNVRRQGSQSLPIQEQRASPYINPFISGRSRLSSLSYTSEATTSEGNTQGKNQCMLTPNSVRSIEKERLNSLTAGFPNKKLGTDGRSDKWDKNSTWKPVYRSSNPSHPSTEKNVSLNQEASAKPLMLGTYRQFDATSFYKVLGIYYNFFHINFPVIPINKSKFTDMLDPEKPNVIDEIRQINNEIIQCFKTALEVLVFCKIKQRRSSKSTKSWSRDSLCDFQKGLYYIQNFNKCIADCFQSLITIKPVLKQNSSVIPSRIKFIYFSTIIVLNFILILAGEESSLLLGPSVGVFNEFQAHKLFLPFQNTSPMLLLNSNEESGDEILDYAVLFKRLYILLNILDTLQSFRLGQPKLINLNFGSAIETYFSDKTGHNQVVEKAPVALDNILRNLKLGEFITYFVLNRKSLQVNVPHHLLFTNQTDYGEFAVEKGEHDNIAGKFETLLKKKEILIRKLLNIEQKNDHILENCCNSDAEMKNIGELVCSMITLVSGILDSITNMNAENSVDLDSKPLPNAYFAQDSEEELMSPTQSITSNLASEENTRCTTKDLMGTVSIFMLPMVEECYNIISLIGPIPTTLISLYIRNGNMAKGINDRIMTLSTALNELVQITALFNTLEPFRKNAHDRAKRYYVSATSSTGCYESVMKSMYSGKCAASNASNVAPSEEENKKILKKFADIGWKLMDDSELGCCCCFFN
# Experiment: PBM E-score (8-mer binding enrichment) (E-score (-0.5 to 0.5)); higher = stronger / more preferred TF binding; most listed sequences are background and not binding sites
# Conditions: protein concentration: 200 nM; construct: GST-full length
# Experimental: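 Universal 'all 10-mer' protein binding microarrays (Agilent AMADID 015681) probed with GST-tagged S. cerevisiae TFs (full-length or DBD) made by in vitro transcription/translation (PURExpress), about 100-200 nM. Bound TF was detected with fluorescent anti-GST. Each ungapped 8-mer (which stands for itself and its reverse complement) is scored by the PBM enrichment score (E-score), a modified Wilcoxon-Mann-Whitney statistic from -0.5 to +0.5, computed with the Universal PBM Analysis Suite. Scale: above 0.35 generally sequence-specific binding.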
row,Sequence,PBM E-score
1,GAAGGCCC,-0.223
2,CCTTCCCG,-0.177
3,AGAAAAAG,0.118
4,CTGCCAAG,-0.14
5,AGTCAGGA,-0.142
6,TCGAGAAA,0.171
7,AGGGAAGC,-0.255
8,TTCAAGAA,0.296
9,TCCTAGCA,-0.213
10,CCGAATGC,0.00659
11,GGTTGTAA,0.0581
12,CGGGCCGA,-0.294
13,AAGAGCGG,-0.0071
14,AGAGCAAT,-0.151
15,TCACCCGA,-0.08
16,CACCTTTC,-0.0461
17,ATATTTAA,0.372
18,GACATTGC,-0.0367
19,CGGTACTC,-0.187
20,ATGGTCCC,-0.232
21,GCATAAAC,0.266
22,AACATAGT,0.234

row,Sequence,PBM E-score
1,ATAGCTCA,0.0239
2,ATCCTGTC,0.0019
3,CGGGCCAA,-0.233
4,CACTAAGA,0.0394
5,TCAGACGA,-0.115
6,AAAAAGAC,0.162
7,AGCTGATA,0.0261
8,AAGAGGAC,-0.051
9,CACATCAC,-0.0103
10,CTAAGTAC,0.046
11,CGGTGTCC,-0.198
12,TGCCCTAA,-0.156
13,AAGATAAC,0.0702
14,ACTTTTTA,0.242
15,GCAGCGCC,-0.098
16,ACGTAGCT,0.0287
17,GGCGTGTA,-0.0896
18,ATCGTAAA,0.122
19,GCAACGCA,-0.217
20,CTGGGTGA,0.0117
21,AATGGCGC,-0.104
22,AAGGTGGA,-0.0199

row,Sequence,PBM E-score
1,CGGTAAAC,-0.0859
2,ATGCCAAA,-0.0597
3,CGATTACA,-0.0785
4,AGACATCG,-0.221
5,ATCCTGAA,0.228
6,CACAGCAA,0.208
7,ACTGCTAT,0.0319
8,GTCCCCGA,-0.131
9,CGACTCAA,0.145
10,CGACGTAA,0.0182
11,ACCGGTAT,-0.0774
12,GCGCAAGC,0.0122
13,ACACCAGC,-0.188
14,ACGCTTAA,0.0404
15,TAGACTCA,0.0118
16,ACTCGGTC,0.05
17,TACCATCA,-0.0367
18,ATAATAAA,0.366
19,AGGGGACC,-0.357
20,CGCTTTGA,0.0154
21,ACTAGTCC,-0.11
22,ATTAGTTG,0.265

row,Sequence,PBM E-score
1,GCCTACTA,0.167
2,CTAATACC,0.0943
3,AACTCGCG,0.139
4,GGGTAAGA,-0.154
5,AAAAACCT,0.307
6,CTGCCCGA,-0.19
7,AAATCGGC,-0.158
8,CGGTGACC,-0.24
9,AGCAACCA,0.0811
10,AGTATTAG,0.174
11,AGGGCCTG,-0.306
12,ATTGCCTG,0.095
13,GAACATTA,0.232
14,CACGGATG,-0.0223
15,AACTGATG,-0.0152
16,CCATCACA,-0.0678
17,AAGCGCCC,-0.246
18,AAAGGGTA,0.0261
19,CAAGGGGA,-0.125
20,TCAAATCA,0.192
21,CGAGTCTA,-0.286
22,CGGACAGC,-0.0522

row,Sequence,PBM E-score
1,CCGAGAGA,-0.0112
2,AGTTATAT,0.199
3,AACTCATA,0.227
4,ACGCGCGA,0.0738
5,GTACGAAA,0.0675
6,GAACTATA,0.227
7,ACTCTAGG,-0.231
8,ACTCACCT,-0.0796
9,AAAGAGCA,0.122
10,ACAGAGTC,-0.176
11,GTTACCAA,0.133
12,CGGGACAG,-0.0324
13,AGCGCCAA,0.026
14,GAGTTTCC,0.0638
15,GTTGCTCA,-0.0343
16,GTGCCAGA,-0.287
17,GGTATGCA,-0.162
18,CGGTATAC,-0.241
19,AGAGGCCT,-0.203
20,AAGGTTGC,-0.0626
21,ATCGATGG,0.0993
22,CGCTTGGA,-0.0712
